In patent US20190298770A1 (IOVANCE BIOTHERAPEUTICS, published 2019):

B1: 38A1-scFV-Fc (Fc fusion)
chain: EVQLVESGGGLVQPGGSLRLSCAASGFTFSNYAMSWVRQAPGKGLEWVSTISGSGGTTYYADSVKGRFTISRDNSKNTLYLQMNSLRVEDTAVYYCAKDWFRSSSPDAFDIWGQGTTVTVSAGGGGSGGGGSGGGGSGAPSYVLTQPPSVSVAPGQTARITCGGNNIGRKIVHWYQQRPGQAPVLVIYYDTDRPAGIPERFSGSNSGNMATLTISTVGAGDEADYYCQVWDTGSDHVVFGGGTKLTVLGPRANFVYKSGPR[letters of human IgG1 Fc left out]
notes: Secreted from transduced cells; also called 38A1-Fc; 38A1-seFV-Fe
B2: 19H9-scFV-Fc (Fc fusion)
chain: QVQLQESGGGLVKPGGSLRLSCAASGFTFSSYSMNWVRQAPGKGLEWVSGINTAGDTHYPESVKGRFTISRDNARNSLNLQMNSLRAEDTAVYYCVRERVEREYSGYDAFDIWGQGTTVTVSAGGGGSGGGGSGGGGSGAPNFMLTQPHSVSESLGKTVTISCTGSSGSIARKFVQWYQQRPGSSPTTVIYENNQRPSGVSDRFSGSIGSSSNSASLTISGLKTEDEADYYCQSYDSSNVVFGGGTKVTVLGPRANFVYKSGPR[letters of human IgG1 Fc left out]
notes: also called 19H9-Fc; 19H9-seFV-Fe

Tests used:
[1] = molecular target: T1, Programmed Death 1 Ligand 1 (PD-L1) (human, UniProt Q9NZQ7); experiment: cell-based or functional assay
[2] = molecular target: T1, Programmed Death 1 Ligand 1 (PD-L1); experiment: flow cytometry of 293-PD-L1 co-cultured 1:1 for 16 hour with Jurkat T-cells secreting the maxibody, Alexa 647 anti-human Fcγ
[3] = molecular target: T1, Programmed Death 1 Ligand 1 (PD-L1); experiment: flow cytometry (MFI) of 293-PD-L1 stained with ten-fold concentrated supernatant of TIL lines M1034 and M1015 secreting the maxibody
[4] = molecular target: T1, Programmed Death 1 Ligand 1 (PD-L1); experiment: cell based ELISA on 293-PD-L1, HRP anti-human Fcγ, OD450. No unit stands beside the number. Panel B has no axis title and the same -3 to 2 scale as panel A (log nM). The curve crosses half height (OD450 about 1.1) near log -0.9. [panel B]
[5] = molecular target: T1, Programmed Death 1 Ligand 1 (PD-L1); experiment: cell based ELISA on 293-PD-L1, HRP anti-human Fcγ, OD450. No unit stands beside the number: nM is taken from the axis title 'Maxibody Concentration (log nM)'. The curve crosses half height (OD450 about 1.0) near log -0.4. [panel A]

T1 sequence (Q9NZQ7 19-290): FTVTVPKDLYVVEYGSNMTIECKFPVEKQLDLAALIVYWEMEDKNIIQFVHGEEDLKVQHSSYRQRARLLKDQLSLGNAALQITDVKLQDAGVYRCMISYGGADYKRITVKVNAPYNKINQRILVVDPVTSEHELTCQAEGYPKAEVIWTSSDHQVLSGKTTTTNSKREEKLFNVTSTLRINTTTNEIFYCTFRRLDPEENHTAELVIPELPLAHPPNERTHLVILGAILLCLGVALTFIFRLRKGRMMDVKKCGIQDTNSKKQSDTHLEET

Binder	capacity to induce bioluminescent activity, fold against 19H9-scFV-Fc [1]	fold increase of mean fluorescent intensity against FMC63-scFV-Fc [2]	fold increase of binding against FMC63-scFV-Fc [3]	EC50 [4]	EC50 [5]
B1	> 3.6 fold	300 fold	> 50 fold	0.125 nM	
B2		100 fold			0.404 nM
